Experimental data: the supplement of paper PMC10369915
The list shows a part of the results. No stated cut-off is given here; in the data, active = 3.2 or more and inactive = the rest. Most of these values are background signal.

B1: PLP1_Y207_D203G (peptide)
chain: AGARMYGVLPW
B2: PMM2_Y145 (peptide)
chain: ERIEFYELDKK
B3: PLP1_Y207_W212R (peptide)
chain: ADARMYGVLPR
B4: PLP1_Y50_F51S (peptide)
chain: KLIETYSSKNY
B5: PLP1_Y207_D203H (peptide)
chain: AHARMYGVLPW
B6: PLD2_Y169_R172C (peptide)
chain: KYLENYLNCLL
B7: PLK1_Y462_L463H (peptide)
chain: DGTESYHTVSS
B8: PLCD1_Y258 (peptide)
chain: SLIERYEPSET
B9: PLP1_Y50 (peptide)
chain: KLIETYFSKNY
B10: PLP1_Y207_V209D (peptide)
chain: ADARMYGDLPW
B11: PLPP7_Y172 (peptide)
chain: KRRGPYETSPS
B12: PLCG2_Y242_H244R (peptide)
chain: DASAVYLRDFQ
B13: PLP1_Y207_D203N (peptide)
chain: ANARMYGVLPW
B14: PLEKHG4_Y1068 (peptide)
chain: DRTVNYVLKCR
B15: PLD2_Y573_T577I (peptide)
chain: TTKAKYKTPIY
B16: PLCG2_Y1036_Y1036D (peptide)
chain: NGRTGDVLQPE
B17: PLCG1_Y210 (peptide)
chain: SGDITYGQFAQ
B18: PLEC_Y2971 (peptide)
chain: AYRRGYFDEEM
B19: PLXND1_Y616 (peptide)
chain: DVRQEYPGMIL
B20: PLEC_Y2971_YF (peptide)
chain: AFRRGYFDEEM
B21: PLCG1_Y991_A995P (peptide)
chain: TKAEKYVNKPK
B22: PLK3_Y615_S618P (peptide)
chain: RSACTYLAPHL
B23: PLP1_Y50_L46P (peptide)
chain: KPIETYFSKNY
B24: PLCG2_Y1036 (peptide)
chain: NGRTGYVLQPE
B25: PLCD1_Y258_R257H (peptide)
chain: SLIEHYEPSET
B26: PLP1_Y207_D203E (peptide)
chain: AEARMYGVLPW
B27: PLP1_Y50_F51S_YF (peptide)
chain: KLIETYSSKNF
B28: PLD2_Y169 (peptide)
chain: KYLENYLNRLL
B29: PLEKHA2_Y185 (peptide)
chain: RRSQSYIPTSG
B30: PLEKHA7_Y243 (peptide)
chain: MRALIYNSSTA
B31: PLP1_Y207 (peptide)
chain: ADARMYGVLPW
B32: PMM2_Y145_D148N (peptide)
chain: ERIEFYELNKK
B33: PLEC_Y2967_R2969H (peptide)
chain: PVDVAYRHGYF
B34: PLBD1_Y375_V377A (peptide)
chain: DKGTLYIAEQI
B35: PLEKHA7_Y243_A248V (peptide)
chain: MRALIYNSSTV
B36: PLEKHG2_Y489 (peptide)
chain: PVKDPYVMFPQ
B37: PLP1_Y207_R205G (peptide)
chain: ADAGMYGVLPW

Key:
Experiment in all cases: enrichment score (SH2-bound / input frequency) (ratio); bacterial display of known human phosphotyrosine sites (pTyr-Var adds point mutants) read by sequencing; higher = stronger binding; tyrosines were phosphorylated by kinases first
Conditions in all cases: peptide library: pTyr-Var
SHP2 C-SH2 domain E139D = target: SHP2 C-SH2 domain E139D
[1] = target: SHP2 C-SH2 domain wild-type
SHP2 N-SH2 domain L43F = target: SHP2 N-SH2 domain L43F
SHP2 N-SH2 domain T42A = target: SHP2 N-SH2 domain T42A
SHP2 N-SH2 domain T52S = target: SHP2 N-SH2 domain T52S
[2] = target: SHP2 N-SH2 domain wild-type
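Further: displayed peptides selected on beads carrying the immobilized SH2 domain, with library peptides lacking any tyrosine serving as negative controls.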

Binder	enrichment score (SHP2 C-SH2 domain E139D)	enrichment score [1]	enrichment score (SHP2 N-SH2 domain L43F)	enrichment score (SHP2 N-SH2 domain T42A)	enrichment score (SHP2 N-SH2 domain T52S)	enrichment score [2]
B1	inactive: 0.761	inactive: 0.738	inactive: 0.817	inactive: 0.693	inactive: 0.677	inactive: 0.955
B2	inactive: 0.928	inactive: 0.689	inactive: 0.783	inactive: 0.753	inactive: 0.768	inactive: 0.604
B3	inactive: 0.431	inactive: 0.357	inactive: 0.551	inactive: 0.48	inactive: 0.497	inactive: 0.505
B4	inactive: 0.994	inactive: 0.925	inactive: 0.965	inactive: 0.877	inactive: 0.855	inactive: 1.24
B5	inactive: 0.769	inactive: 0.798	inactive: 0.628	inactive: 0.642	inactive: 0.711	inactive: 0.8
B6	inactive: 2.81	inactive: 3.12	active: 3.22	inactive: 2.96	inactive: 2.72	inactive: 2.93
B7	inactive: 0.384	inactive: 0.346	inactive: 0.585	inactive: 0.291	inactive: 0.649	inactive: 0.68
B8	inactive: 0.542	inactive: 0.539	inactive: 0.611	inactive: 0.527	inactive: 0.629	inactive: 0.703
B9	inactive: 1.15	inactive: 0.804	inactive: 1	inactive: 0.977	inactive: 0.638	inactive: 0.959
B10	inactive: 0.776	inactive: 0.829	inactive: 0.828	inactive: 0.724	inactive: 0.735	inactive: 0.762
B11	inactive: 0.291	inactive: 0.259	inactive: 0.294	inactive: 0.243	inactive: 0.274	inactive: 0.302
B12	inactive: 0.838	inactive: 0.892	inactive: 0.742	inactive: 0.64	inactive: 0.707	inactive: 0.67
B13	inactive: 0.826	inactive: 0.744	inactive: 0.922	inactive: 0.619	inactive: 0.687	inactive: 1.07
B14	inactive: 0.572	inactive: 0.846	inactive: 0.659	inactive: 0.737	inactive: 0.563	inactive: 0.897
B15	inactive: 0.828	inactive: 0.78	inactive: 0.822	inactive: 0.584	inactive: 0.628	inactive: 1.04
B16	inactive: 0.848	inactive: 0.799	inactive: 0.78	inactive: 0.519	inactive: 0.623	inactive: 0.784
B17	inactive: 0.843	inactive: 0.759	inactive: 0.765	inactive: 0.585	inactive: 0.614	inactive: 0.646
B18	inactive: 0.339	inactive: 0.289	inactive: 0.317	inactive: 0.304	inactive: 0.4	inactive: 0.399
B19	inactive: 0.739	inactive: 0.698	inactive: 0.752	inactive: 0.591	inactive: 0.725	inactive: 0.813

Binder	enrichment score (SHP2 C-SH2 domain E139D)	enrichment score [1]	enrichment score (SHP2 N-SH2 domain L43F)	enrichment score (SHP2 N-SH2 domain T42A)	enrichment score (SHP2 N-SH2 domain T52S)	enrichment score [2]
B20	inactive: 0.301	inactive: 0.315	inactive: 0.326	inactive: 0.342	inactive: 0.369	inactive: 0.539
B21	inactive: 0.659	inactive: 1	inactive: 0.828	inactive: 0.611	inactive: 0.62	inactive: 0.865
B22	inactive: 0.956	inactive: 1.39	inactive: 1.23	inactive: 1.42	inactive: 1.1	inactive: 1.24
B23	inactive: 0.828	inactive: 0.567	inactive: 0.763	inactive: 0.566	inactive: 0.762	inactive: 0.758
B24	inactive: 0.714	inactive: 0.598	inactive: 0.77	inactive: 0.627	inactive: 0.746	inactive: 0.754
B25	inactive: 0.718	inactive: 0.48	inactive: 0.617	inactive: 0.571	inactive: 0.476	inactive: 0.711
B26	inactive: 0.911	inactive: 0.877	inactive: 0.911	inactive: 0.831	inactive: 1.08	inactive: 1
B27	inactive: 0.952	inactive: 1.02	inactive: 0.929	inactive: 0.748	inactive: 0.685	inactive: 1.34
B28	active: 3.61	active: 3.78	active: 3.47	active: 3.24	inactive: 3.03	active: 3.35
B29	inactive: 0.244	inactive: 0.287	inactive: 0.285	inactive: 0.312	inactive: 0.224	inactive: 0.271
B30	inactive: 0.734	inactive: 0.746	inactive: 0.601	inactive: 0.558	inactive: 0.768	inactive: 0.999
B31	inactive: 0.877	inactive: 0.684	inactive: 0.751	inactive: 0.745	inactive: 0.817	inactive: 1.01
B32	inactive: 0.924	inactive: 0.631	inactive: 0.457	inactive: 0.569	inactive: 0.608	inactive: 0.511
B33	inactive: 0.99	inactive: 0.821	inactive: 0.913	inactive: 0.738	inactive: 0.774	inactive: 1.42
B34	inactive: 0.747	inactive: 0.821	inactive: 0.856	inactive: 0.684	inactive: 0.793	inactive: 1.14
B35	inactive: 0.703	inactive: 0.716	inactive: 0.707	inactive: 0.52	inactive: 0.634	inactive: 0.796
B36	inactive: 0.954	inactive: 0.997	inactive: 1.12	inactive: 1.15	inactive: 0.752	inactive: 1.06
B37	inactive: 0.795	inactive: 0.703	inactive: 0.68	inactive: 0.778	inactive: 0.665	inactive: 0.771
